Reference: publication PMC4336329 (PLoS ONE, 2015)
The campaign covered roughly 310,000 compounds. About 14,000 (4.5%) showed an effect of 50% or more. Effects have a minus sign here. The list shows a part of the results.

molecular target: human ether-à-go-go-related gene (hERG) potassium channel (human, UniProt Q12809); assay: primary screen, population patch clamp on CHO cells stably expressing hERG
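Also: peak tail current of the secondary pulse compared with the same well before compound.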

Chain of human ether-à-go-go-related gene (hERG) potassium channel (Q12809 whole entry, looked up): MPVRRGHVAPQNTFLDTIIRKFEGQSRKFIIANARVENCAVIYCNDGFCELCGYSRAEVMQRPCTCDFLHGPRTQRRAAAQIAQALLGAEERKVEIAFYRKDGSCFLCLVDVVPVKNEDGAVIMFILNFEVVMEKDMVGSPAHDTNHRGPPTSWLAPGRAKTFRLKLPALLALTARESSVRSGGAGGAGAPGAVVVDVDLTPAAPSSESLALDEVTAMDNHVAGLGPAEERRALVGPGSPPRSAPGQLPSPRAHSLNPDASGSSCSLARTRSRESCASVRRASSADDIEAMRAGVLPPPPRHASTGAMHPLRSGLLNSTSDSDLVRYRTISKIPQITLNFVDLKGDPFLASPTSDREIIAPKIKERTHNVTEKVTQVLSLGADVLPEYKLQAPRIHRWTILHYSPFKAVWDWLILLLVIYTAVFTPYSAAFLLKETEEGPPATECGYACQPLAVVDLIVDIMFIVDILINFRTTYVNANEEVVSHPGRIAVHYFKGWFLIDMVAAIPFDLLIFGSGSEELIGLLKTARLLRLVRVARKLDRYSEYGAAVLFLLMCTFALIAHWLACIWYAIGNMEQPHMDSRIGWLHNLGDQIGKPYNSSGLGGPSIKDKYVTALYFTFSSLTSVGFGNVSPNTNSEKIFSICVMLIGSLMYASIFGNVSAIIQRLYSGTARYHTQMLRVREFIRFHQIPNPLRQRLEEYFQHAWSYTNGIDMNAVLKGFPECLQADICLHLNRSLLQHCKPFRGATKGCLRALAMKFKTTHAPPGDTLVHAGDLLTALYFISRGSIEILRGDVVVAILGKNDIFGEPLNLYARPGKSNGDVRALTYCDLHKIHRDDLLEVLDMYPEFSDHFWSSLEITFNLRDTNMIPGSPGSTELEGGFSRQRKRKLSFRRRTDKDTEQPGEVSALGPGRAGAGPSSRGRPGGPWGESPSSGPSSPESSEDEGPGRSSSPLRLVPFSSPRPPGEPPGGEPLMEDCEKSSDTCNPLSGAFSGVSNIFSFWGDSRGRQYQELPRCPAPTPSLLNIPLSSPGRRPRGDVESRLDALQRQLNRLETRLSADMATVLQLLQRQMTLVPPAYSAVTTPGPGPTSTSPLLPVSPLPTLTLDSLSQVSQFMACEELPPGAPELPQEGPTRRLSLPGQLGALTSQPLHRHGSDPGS

Row | Structure (SMILES) | hERG current change (%, negative = inhibition) at 10uM [%]
1 | CCC(C)(C)N=C(NC#N)Nc1cccnc1 | 6.22
2 | O=C1/C(=C/c2ccc([N+](=O)[O-])cc2)CCc2ccccc21 | -0.452
3 | CC(C)(C)C1CCC(=O)N(CCC#N)CC1 (centres unmarked) | -2.41
4 | Cc1cc(C(=O)N2CCN(S(=O)(=O)c3ccccc3F)CC2)c(C)o1 | 15.6
5 | C=CCOC(=O)C1=C[C@@H](c2coc3ccccc3c2=O)[C@H](CCCO)[C@@H](OCC)O1 | -27.5
6 | O=[N+]([O-])c1ccc(O)c(/C=N/n2cnc3ccccc32)c1 | 19.2
7 | Nc1ccc2nc(SCC(=O)Nc3ccc(N4CCOCC4)c(Cl)c3)sc2c1 | 7.12
8 | C=CCn1c(SCC(O)Cn2c3ccccc3c3ccccc32)nnc1-c1ccco1 (centres unmarked) | 2.05
9 | CCOc1ccc(S(=O)(=O)N2CCN(C(=O)c3cccnc3)CC2)cc1 | -29.3
10 | O=C(CSc1nc2ccccc2c(=O)n1Cc1ccc(Cl)cc1)NCc1cccs1 | -52.5
11 | CCOc1ccc(CCNC(=O)CCc2nc(-c3ccc(C)cc3)no2)cc1OCC | -1.95
12 | CCc1ccc(C2=NN(CCC(=O)NC3CCCCCC3)C(=O)CC2)cc1 | -33.4
13 | CCCn1c(COc2ccccc2OC)nc2ccccc21 | -10.3
14 | CCN(CC)S(=O)(=O)c1ccc2[nH]c(=O)cc(C(=O)NCC3CCCO3)c2c1 (centres unmarked) | -10.3
15 | Cc1cc(C(=O)OCC(=O)c2cccs2)c2ccccc2n1 | 24.1
16 | Cn1cccc1CC(=O)NNC(=O)Nc1ccc(F)cc1 | -0.548
17 | Cc1nn(C)c(C)c1NC(=S)Nc1ccc(S(=O)(=O)Nc2ncccn2)cc1 | -3.6
18 | CCOC(=O)c1oc2ccc3c(c2c1C)C(=O)CC1(CCN(C(=O)OCC)CC1)O3 | -1.98
19 | Cc1ccc(NC(=O)Cn2nnc3ccccc3c2=O)cc1 | 9.98

Row | Structure (SMILES) | hERG current change (%, negative = inhibition) at 10uM [%]
20 | Cc1cc(NS(=O)(=O)N(C)C)ccc1C(C)C | 10.5
21 | COc1cc(CN2CCc3ccc(NC(=O)CCc4ccccc4OC)cc3C2)ccc1O | -37.3
22 | NC1=NC(c2ccc(F)cc2)n2c(nc3ccccc32)N1 (centres unmarked) | 7.14
23 | COc1ccc(CN2CCNC(=O)C2CC(=O)NCCc2c[nH]c3ccccc23)c(OC)c1 (centres unmarked) | 38.5
24 | COCC(C)NC(=O)c1cc(OC)cc(OC)c1 (centres unmarked) | 7.71
25 | Cc1ccc(NC(=O)CSc2nnc(CSc3nc(C)cc(C)n3)n2Cc2ccco2)c(C)c1 | -39.5
26 | CC(C)CN1C(=O)C(=O)N(CC(=O)N2CCN(c3ccccc3)CC2)C1=O | -11.8
27 | Cc1cc(C(=O)Nc2cc(C)n(Cc3ccc(Cl)cc3)n2)no1 | -40.2
28 | Cc1ccccc1-n1c(SCC(=O)N2CCC(C(=O)O)CC2)nnc1-c1ccncc1 | 32.7
29 | COCCNC(=O)Cn1cc2c(n1)CCCCC2 | 6.91
30 | CCOC(=O)c1c(N)c2cc([N+](=O)[O-])cnc2n1C | 17.3
31 | CC(=O)N1c2ccc(S(=O)(=O)NCC3CCC(C(=O)NCc4ccc(C)cc4)CC3)cc2CC1C (centres unmarked) | -0.179
32 | Cc1cc(C)cc(Oc2nc3ccccn3c(=O)c2/C=C(\C#N)C(=O)NC2CCS(=O)(=O)C2)c1 (centres unmarked) | -4.95
33 | O=C(NCc1ccc2c(c1)OCO2)c1ccc(CS(=O)Cc2cccc(Cl)c2)o1 (centres unmarked) | -23.6
34 | CC1C/C(=N\NC(=O)CCc2ccc(S(=O)(=O)N3CCOCC3)cc2)CC(C)(C)C1 (centres unmarked) | 8.88
35 | O=C(CCNS(=O)(=O)c1ccc(Br)cc1)NCc1ccco1 | -22.8
36 | COc1ccc(-c2nc(CS(=O)CC(=O)NC(C)CCc3ccccc3)c(C)o2)cc1OC (centres unmarked) | -16.8
37 | Cn1cnc2cc(NCc3ccc(Cl)cc3)ccc21 | -18.3
38 | CCOC(=O)c1[nH]c(=O)[nH]c1CN(Cc1ccco1)Cc1[nH]c(=O)[nH]c1C(=O)OCC | 8.37

Row | Structure (SMILES) | hERG current change (%, negative = inhibition) at 10uM [%]
39 | O=C(c1ccccc1Cl)N1CCSCC1 | 13.9
40 | CCOC(=O)N1CCN(c2ccc3nnnn3n2)CC1 | -18.1
41 | O=C(Nc1cccc(-c2ccc(N3CCOCC3)nn2)c1)c1ccccc1 | -30.8
42 | Cn1nccc1C(=O)Nc1cccc(S(=O)(=O)N2CCOCC2)c1 | 6.58
43 | O=C(c1cc2c(s1)-c1ccccc1S(=O)(=O)C2)N1CCCC1 | -18.1
44 | Cc1cccc(N2CCc3c2nc2ccccc2c3N)c1.O=C(O)C(=O)O | -53.7
45 | COc1cc(OC)c2ccc(=O)oc2c1C(CCN1CCCC1)c1ccc(N(C)C)cc1 (centres unmarked) | -24.1
46 | COc1ccccc1CNC(=O)c1cc2c(=O)[nH]c3ccccc3c2n1C | 12.3
47 | CC(C)c1ccccc1NC(=O)COC(=O)c1cc(=O)[nH]c(=O)[nH]1 | 13.2
48 | COC(=O)C1=C(C)Nc2[nH]c(=S)[nH]c(=O)c2C1c1ccc(OC)cc1 (centres unmarked) | 26.8
49 | COc1cc(OC)cc(C(=O)N2CCN(c3ccccn3)CC2)c1 | -1.01
50 | C=CCNc1nc(NCc2ccccc2)c(C#N)c2c1CN(C)CC2 | -68.1
51 | O=C(CN1CCc2[nH]c3ccccc3c2C1)N1CCCCC1 | 0.176
52 | CC(=NC(C)c1ccccc1)c1c(O)[nH]c(=O)[nH]c1=O (centres unmarked) | 5.61
53 | COc1ccc(C2CC(C)(c3ccc(OC)cc3OC)Nc3ccccc3N2)c(OC)c1 (centres unmarked) | -10.4
54 | O=C(O)c1nn(-c2cccc(Cl)c2)c(=O)cc1O | 4.44
55 | COc1cc(NC(=O)c2cc3ccccc3o2)c(OC)cc1Cl | 16.3
56 | CC(CCc1ccc(O)cc1)NCc1ccc(Br)cc1 (centres unmarked) | -76.2
